This passage reports viscosity results from the CheMixHub viscosity set.

The structures appear in SMILES notation. ± gives the uncertainty stated by the source. The source holds more than one record for some entries. Only these are listed. An entry can have further records. Values that stand side by side are repeats in other runs, samples, wells, individuals or studies. Marks in square brackets tell the records apart. Letters hold for one entry only.

On to `CCCCO`, for which the viscosity reads like this: (298.15 K, 101.33 kPa) 2.484 mPa·s [study A] and 2.525 ± 0.017 mPa·s [study B] and 2.484 ± 0.059 mPa·s [study C] and 2.509 ± 0.015 mPa·s [study D]; (303.15 K, 101.33 kPa) 2.174 ± 0.052 mPa·s [study A] and 2.324 ± 0.12 mPa·s [study B] and 2.324 ± 0.11 mPa·s [study C] and 2.209 ± 0.027 mPa·s [study D]; (308.15 K, 101 kPa) 2.254 ± 0.017 mPa·s [study A] and 1.574 ± 0.022 mPa·s [study B] and 2.047 ± 0.018 mPa·s [study C] and 1.834 ± 0.068 mPa·s [study D] and 1.927 ± 0.024 mPa·s [study E]; (313.15 K, 101.33 kPa) 1.705 ± 0.011 mPa·s [study A] and 1.817 ± 0.012 mPa·s [study B] and 1.817 ± 0.014 mPa·s [study C] and 1.817 ± 0.022 mPa·s [study D].
